According to the supplement of paper PMC3334620:
The full ranking holds about 33,000 sequences; the median of “E-score (-0.5 to 0.5)” is about -0.017, and the highest 2% start at about 0.3. This is one part of the list.

biological target: T1, Sut1 (UniProt P53032); assay: PBM E-score (8-mer binding enrichment) (E-score (-0.5 to 0.5)); higher = stronger / more preferred TF binding; most listed sequences are background and not binding sites; conditions: protein concentration: 200 nM; construct: GST-full length
T1 sequence: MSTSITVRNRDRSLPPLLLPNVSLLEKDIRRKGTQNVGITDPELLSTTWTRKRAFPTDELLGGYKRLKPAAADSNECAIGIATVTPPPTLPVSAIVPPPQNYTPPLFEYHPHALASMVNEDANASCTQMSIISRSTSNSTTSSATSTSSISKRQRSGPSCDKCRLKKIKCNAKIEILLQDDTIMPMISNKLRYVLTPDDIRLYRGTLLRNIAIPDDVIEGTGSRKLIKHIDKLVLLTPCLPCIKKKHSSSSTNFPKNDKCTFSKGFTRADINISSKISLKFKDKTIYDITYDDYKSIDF
How it was run: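 Detection of bound protein used fluorescent anti-GST, with scans normalised by masliner. The proteins were GST-tagged yeast transcription factors applied at about 100-200 nM to universal all-10-mer Agilent arrays made double-stranded by primer extension. Each ungapped eight-base word, pooled with its reverse complement, was scored with an E-score from the Universal PBM Analysis Suite.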

Sequence | PBM E-score
CAGCTATG | -0.0806
CATGGACA | -0.248
GCGTGGCA | -0.0303
AACAGGCG | -0.309
CAGTGTTA | 0.0938
ATAATGTA | 0.21
CAGTCATA | -0.0857
TAGGGCAA | -0.143
GATCGACC | -0.00202
ACCCGACC | -0.117
CCGCTTGA | -0.162
AGCGATAT | 0.107
GCCCTCCC | -0.116
CCAATTGA | -0.0324
CAAAATAC | 0.243
GTTATTCA | 0.243
ATGCACTA | 0.0604
TAAGTGAA | 0.242
GGCAAGAC | -0.159
CGCCACCC | -0.312
GACCCAAA | 0.0932
ATCACCTG | -0.277

Sequence | PBM E-score
ACTCTGCA | 0.00784
CGTACAGC | -0.101
CAGATCGG | 0.0645
GCGAGCCA | -0.192
CCTAGATC | -0.213
GCTAAAGC | -0.0213
ATTATTGG | 0.187
ATGGACAT | 0.0377
CCTCTTTA | -0.024
GTAGTGTA | -0.00167
ACCATTTC | 0.1
CCCGTAAG | -0.0501
AACCCATC | -0.178
ACATACGC | -0.166
ATGATACA | 0.21
GGCGTAAC | -0.216
AAATACTT | 0.246
ACTGAATA | 0.116
AACCCGCT | -0.24
CTTAGGTA | -0.0114
CGAGGTAA | -0.0696
TCCGGCAA | 0.33

Sequence | PBM E-score
AGAGACCA | -0.0757
AACGACTA | 0.138
AATAATGG | 0.201
TAACTAGA | 0.234
TGTAAGAA | 0.287
CAATCACG | 0.0021
ATAAACAG | 0.192
GGTAGATA | 0.205
CGGTTATC | 0.137
GCTACAGC | -0.15
CACACAAC | -0.0815
ACTGCCGA | 0.052
AAACAGTT | 0.152
GATTGGCC | -0.084
GCCCCCCA | -0.424
ATGCTGCA | -0.256
ACTTTTCT | 0.0248
AAGACTCA | -0.283
AGTTGCAA | 0.123
ACGCACTC | 0.0935
AAACTTGA | 0.0615
AGTAGCAT | 0.0369

Sequence | PBM E-score
AACGTGTG | -0.203
ATGCTAAG | -0.107
AAGAGCCT | -0.166
CTCCAATC | -0.115
ATATTGTC | 0.268
CAGACACG | -0.214
GCCCAACC | -0.15
TCTTAAGA | 0.148
CTCGGAGA | 0.419
AAATCGGG | 0.0832
ATATCTAA | 0.159
ACGCTCAC | 0.0304
GTCAGATA | -0.106
GATACAGC | -0.0182
CTGATTGC | 0.023
GAACTACC | -0.0691
ATCATAGC | 0.0764
AGAACAGC | -0.0298
CTAATCTA | 0.144
CTGCTGAC | -0.157
